Laboratory results as given in PubChem BioAssay AID1963576 (National Center for Advancing Translational Sciences (NCATS), 2024).
Out of some 46,000 compounds screened, about 60 (0.1%) were called active. About 3% were inconclusive and are not listed. Calls follow the shape of the dose curve; as a rule, active = well fitted inhibition curve with a large enough effect; inconclusive = small, poorly fitted or top-dose-only effect; inactive = no such curve, though single readings can be large or run the other way. The list shows a part of the results.

Assay: Primary qHTS assay for Inhibitors of ovarian cancer metastasis using an organotypic tumor microenvironment (TME) model. Also: nearly all actives have a fitted effect of over 65% in size.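 As to Potency: count of GFP cancer cells still attached after washing and fixation.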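 As to activity change, negative = inhibition: plate controls were DMSO wells for no effect and tomatine positive control wells for full effect.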
Conditions: SKOV3ip1-GFP adhesion/invasion on 3D omental model, fluorescence; series mostly up to 45.8 µM; activity change, negative = inhibition: at the top concentration
Summary of the method: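 qHTS, 4-pt dose (0.36-46 umol/L); SKOV3ip1-GFP, 1,200 cells/well, no FBS; primary omental fibroblast/mesothelial co-culture 48 h pre-grown; 2 h RT + 16 h 37 C; PBS wash, 4% PFA; GFP count 488/509 nm.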
Potency is read from the fitted curve at half-maximal effect.

Activity change, negative = inhibition, inactive:
COc1ccc(CNc2nc(-c3ccc(Cl)cc3)cc(C(F)(F)F)n2)cc1 55.4%
COc1ccccc1S(=O)(=O)Cc1ccc(C(=O)N2CCN(c3cc(Cl)ccc3C)CC2)o1 0.689%
CCc1ccccc1NC(=O)COCc1cc(-c2ccco2)on1 -3.68%
Cc1ccc2occ(CC(=O)N(Cc3ccc(Cl)cc3)Cc3ccco3)c2c1 -12.7%
O=C(NCCc1ccccc1)c1ccc2nc(CCc3ccccc3)oc2c1 -6.58%
Cc1ccc(-n2c(CCC(=O)O)ccc2-c2cccs2)cc1Cl 7.47%
Cc1cc(O)c(C(c2ccccc2)N2CCN(c3ccc(F)cc3)CC2)c(=O)n1Cc1ccco1 (configuration not stated) 17.2%
CCOc1ccccc1N1CC(c2nc3ccccc3n2CCCOc2ccc(OC)cc2)CC1=O (configuration not stated) 6.54%
COc1ccc(CNC(=O)c2sc3nc[nH]c(=O)c3c2C)cc1 34.3%
Cc1noc(-c2ccccc2OCC(=O)Nc2ccccc2[N+](=O)[O-])n1 -3.23%
COc1cccc(CNC(=O)c2ccc(-n3c(C)cc4c3CCCC4)cc2)c1 -6.47%
CCc1ccccc1NC(=O)c1cc2nc(-c3ccc(Br)cc3)cc(C(F)(F)F)n2n1 3.18%
Cc1cccc(OCc2cc(=O)n3c4c(sc3n2)CCCC4)c1C 0.923%
Cc1ccc(-c2cn3nc(N4CCCC(C(=O)NCc5ccc(F)cc5)C4)sc3n2)cc1 (configuration not stated) -5.08%
CC(C)(C)c1ccc(C(=O)N2CCCC(c3nc4c(nnn4Cc4cccc(F)c4)c(=O)[nH]3)C2)cc1 (configuration not stated) -1.1%
CCCCOc1ccccc1C(=O)N(Cc1sccc1C)C1CCS(=O)(=O)C1 (configuration not stated) 2.1%
CCOc1ccc(NC(=O)CSc2c3c(nc4ccccc24)CCCC3)cc1 0.621%

outcome, inactive:
Cc1ccc(N2C(=O)[C@@H]3CSC(c4ccc(Cl)cc4)N3C2=O)cc1 (some centres not stated)
CCOc1ccc(OCC)c(NC(=O)C2CCN(S(=O)(=O)c3ccc4c(c3)CC(C)N4C(C)=O)CC2)c1 (configuration not stated)
Cc1cc(C)c(Cn2c(=O)n(CCC(=O)NCc3ccc4c(c3)OCO4)c(=O)c3ccccc32)c(C)c1
COc1cc(C2CC(=O)Nc3ccc4ccccc4c32)ccc1OC(=O)C(C)C (configuration not stated)
CCOc1ccc2c(c1)c(=O)c(C(=O)c1ccc(CC)cc1)cn2CC(=O)Nc1cccc(Cl)c1
O=C(c1ccco1)N(Cc1cccs1)c1ccc(F)cc1
CC(C)OCCCN1C(=O)c2[nH]nc(-c3ccccc3O)c2C1c1ccccc1F (configuration not stated)
CC(C)c1nc2ccc(C(=O)NCc3ccccc3Br)cc2o1
CCc1ccc(C(=O)CC2(O)C(=O)N(Cc3ccc(C)cc3)c3ccccc32)cc1 (configuration not stated)

Potency, active:
O=C(NCC1CCN(Cc2cccc(Cl)c2)CC1)Nc1ccc(F)c(Cl)c1 20 µM
